Results from PMC12136788.
The list shows a part of the results.

B1: chr7:101137467:101137738:+|3pUTR|ENSG00000106366|msi1|FALSE|unique (ssRNA)
RNA: GGGAGUUCUACAGUCCGACGAUCGUUAAAAGAUGGUAAACCAGAUCUGUCUCCAAGACCUUGGCCUCUCCUUGGAGGACCUUUAGGUCAAACUCCCUAGUCUCCACCUGAGACCCUGGGAGAGAAGUUUGAAGCACAACUCCCCAACAGAGGAUUGAGCAUCA
B2: ENSG00000107863:be:win_3251|CDS|ENSG00000107863|bound_else_gene|NA|bound_elsewhere_windowed (ssRNA)
RNA: GGGAGUUCUACAGUCCGACGAUCCUUUGCUUGGUGCUAAAUCAGAGCCAAAGACUCAAAGCCCACACUCUCCGAAGGAAGAGUCGGAAAGGAAACUUCUCAGUAAAGAUGAUACCAGUCCCCCAAAAGACAAAGGCACAUGGACAACAGAGGAUUGAGCAUCA
B3: chr19:582815:582998:+|CDS_3pUTR|ENSG00000172270|msi1_unk|FALSE|overlapping (ssRNA)
RNA: GGGAGUUCUACAGUCCGACGAUCUCAUACACUUCCUUCUUUUUUAAAAAAGUUGGGUUUUCUCCAUUCAGGAUUCUGUUCCUUAGGUUUUUUUCCUUCUGAAGUGUUUCACGAGAGCCCGGGAGCUGCUGCCCUGCGGCCCCGCAACAGAGGAUUGAGCAUCA
B4: chr2:157736639:157736676:-|3pUTR|ENSG00000115170|msi1_unk|FALSE|overlapping (ssRNA)
RNA: GGGAGUUCUACAGUCCGACGAUCCUUCACAUUUGUAUGUGUGUAGACUGUAACUUUUUUUCAGUUCAUAUGCAGAACGUAUUUAGCCAUUACCCACGUGACACCACCGAAUAUAUUACUGAUUUAGAAGCAAAGAUUUCAGUACAACAGAGGAUUGAGCAUCA
B5: chr11:6395124:6395533:-|three_prime_utr|ENSG00000166313|control|control|control (ssRNA)
RNA: GGGAGUUCUACAGUCCGACGAUCCCCUCCACCUGCUUGUGUUGGGCCCCAGGGAACUAAAGGGUGUGGGUCAGGGAGGGGUCUAGAGGCUAUUCCUAGGCCUCAGGCCUCCCAAAUAUGCCCCUCCCCAGUAGCUACGGUUCCCAACAGAGGAUUGAGCAUCA
B6: chr21:29063390:29063550:-|CDS|ENSG00000156261|unk|FALSE|unique (ssRNA)
RNA: GGGAGUUCUACAGUCCGACGAUCGUUUACUUGUUUUGCCAGGGAACAGUGUUGAUAAAGACUGCUGAAGAAUUGAUGAAUUUUAGUAAGGGAGAAGAAAACCUCAUGGAUGCACAAGUCAAAGCUAUUGCUGAUACUGGUGCACAACAGAGGAUUGAGCAUCA
B7: chr13:52643008:52643109:+|CDS|ENSG00000139675|unk|total|mutant (ssRNA)
RNA: GGGAGUUCUACAGUCCGACGAUCCAUACUGUGAAGGGCCACAACUGUGAAGUCCGAAAAGCCCUGCCAAAGCAAGAGAUGGCCCGUGCUUCAUCCAGCCAAAGAGGUCGAAGGGGUUCUGGAAACUUUGGUGGUGGUCGUGGACAACAGAGGAUUGAGCAUCA
B8: chr2:190659421:190659522:+|CDS|ENSG00000138386|unk|FALSE|unique (ssRNA)
RNA: GGGAGUUCUACAGUCCGACGAUCAGAGACUGGGUCACAAACCCUGGGCUUUUCAAUCAGCCACUGACUUCCCUUCCUGUCAGUAGCAUACCCAUCUAUAAAUUACCAGAGGGAUCACCAACAUGGCUGGGAAUAUCCUGCAGUCAACAGAGGAUUGAGCAUCA
B9: ENSG00000038382:stop:overlap|stop_codon|ENSG00000038382|stop_codon|NA|stop_codon (ssRNA)
RNA: GGGAGUUCUACAGUCCGACGAUCUUGUAAGUAUAGGCGUUCAGAAUUGUAAGUCUAAAGGUAACACAAUUGCAGUCUUUUUGUAGGUAGAGAAGAAUUGUUCAUUGUCUUCAGUUUAACCUCCCAAUCUGUCCUGAAAUGUUCCAACAGAGGAUUGAGCAUCA
B10: chr12:123662440:123662541:+|3pUTR|ENSG00000111358|unk|total|mutant (ssRNA)
RNA: GGGAGUUCUACAGUCCGACGAUCAAUGGAAAUCACAAUUUUAAGUCCCGGAAAUAAAGUAUUAUAUAUACUUUCAAACAAGCCCGCAAGGCUUUUAUUAUUACUUUUUUAUUUGAAAUAUCUUAUAUAUUUGGUCCGUUCUGUCAACAGAGGAUUGAGCAUCA
B11: chr2:240467872:240467977:+|3pUTR|ENSG00000063660|msi1|FALSE|unique (ssRNA)
RNA: GGGAGUUCUACAGUCCGACGAUCCUCUGGCACAGUGAUGCCGGGCGCCAGGACAGCAGCACUCCCGCUGCACACAGACGGCCUAGGGGUGGCGCUCAGACCCCACCCUACGCUCAUCUCUGGAAGGGGCAGCCCUGAGUGGUCCAACAGAGGAUUGAGCAUCA
B12: ENSG00000162521:stop:overlap|stop_codon|ENSG00000162521|stop_codon|NA|stop_codon (ssRNA)
RNA: GGGAGUUCUACAGUCCGACGAUCGUUCUGUAUCAGAAGACAAUAUCAUGCAAGUGUGGCAAAUGGAGUUAGUCCUUGACCACUAGUUUGAUGCCAUCUCCAUUUUGGGUGACCUGUUUCACCAGCAGGCCUGUUACUCUCCAUCAACAGAGGAUUGAGCAUCA
B13: chr2:231108229:231108516:-|three_prime_utr|ENSG00000135914|control|control|control (ssRNA)
RNA: GGGAGUUCUACAGUCCGACGAUCAAGAAUAUCUAAUUUUCCUAAUUUGGACAAGAUUAUUCCAUGAGGAAAAUAAUUUUAUAUAGCUACAAAUGAAAACAAUCCAGCACUCUGGUUAAAUUUUAAGGUAUUCGAAUGAAAUAACAACAGAGGAUUGAGCAUCA
B14: chr1:39623434:39626506:-|three_prime_utr|ENSG00000163909|control|control|control (ssRNA)
RNA: GGGAGUUCUACAGUCCGACGAUCCCCCAGUCAGGAGCAAUGACUGACUGGCUGCAGCCUUCCCACGCCAAGAGGCUGGAACAUAGUGUCUGCCUCGCUUCCUGGAGAUAGUAACUGAGCAGGGGCUACAAAGAGGUCUCCUGGCAACAGAGGAUUGAGCAUCA
B15: chr2:85649053:85649154:+|3pUTR|ENSG00000168883|unk|total|mutant (ssRNA)
RNA: GGGAGUUCUACAGUCCGACGAUCUUCAGCAGGGCAGAACCCUUCUCCAGAUGUGUGUAACUUAUGUCUUGAGUAUCUGGGAGCCGUUGAAGAACAGAUAAUUCCUUCCAAACAUCAAGCCUUGGGAUUCUUGGAGCAAGCAGACAACAGAGGAUUGAGCAUCA
B16: ENSG00000180398:stop:overlap|stop_codon|ENSG00000180398|stop_codon|NA|stop_codon (ssRNA)
RNA: GGGAGUUCUACAGUCCGACGAUCAUGAUGACAAGAACAAUGAUGGAUACAUUGACUAUGCUGAAUUUGCAAAAUCACUGCAGUAGAUGUUAUUUGGCCAUCUCCUGGUUAUAUACAAAUGUGACCCGUGAUAAUGUGAUUGAACAACAGAGGAUUGAGCAUCA
B17: chr12:48782793:48782894:-|CDS|ENSG00000174233|msi1|FALSE|unique (ssRNA)
RNA: GGGAGUUCUACAGUCCGACGAUCGCACUGUUGGCCUGUGCCGCCGCCCUGUUCGUGGGGCUCAUGGUGGUGUGUAACCGGCAUAGCUUCCGCCAGGACUCCAUGUGGGUGGUGAGCUACGUGGUGCUGGGCAUCCUGGCGGCACAACAGAGGAUUGAGCAUCA
B18: ENSG00000241258:stop:overlap|stop_codon|ENSG00000241258|stop_codon|NA|stop_codon (ssRNA)
RNA: GGGAGUUCUACAGUCCGACGAUCAGGCUGAGCAGAAGAAGAAUACAAACAGCAAUGUGGCAAUGGACGAAGAGGACCCAGCAUAGAAGAGCACAGCUGGCCCCGGCGUUUCAUGAAGUCAGAAGGCCUGGCAGCCAUUUCCUGCAACAGAGGAUUGAGCAUCA
B19: chr2:222942681:222942782:+|3pUTR|ENSG00000123983|msi1|total|mutant (ssRNA)
RNA: GGGAGUUCUACAGUCCGACGAUCAAAAUCCGUGUUUUUCCCCGUUUGCACUGAUGCGUGUAUGGAUGUGUGUGAGUCAGUGGCCGCUUAUUUAAAAAGCACCUUAUCCUUUCUCCCAUAACCUUUGUACACUAAAAAAUGAAACAACAGAGGAUUGAGCAUCA
B20: chr9:122240152:122240253:-|3pUTR|ENSG00000119446|msi1|total|mutant (ssRNA)
RNA: GGGAGUUCUACAGUCCGACGAUCCUUCUUGGAGUACCGAAUUCACCAUUUUAUCCGUAAGUCUUCAAAGGAUUAUGGUGGACCCGAACUUACACCGUGCAAAACCGUCUUCUAUUUUUAACCGGAACUCCGAAAAAACUCCGACAACAGAGGAUUGAGCAUCA
B21: ENSG00000124766:be:win_3301|3pUTR|ENSG00000124766|bound_else_gene|NA|bound_elsewhere_windowed (ssRNA)
RNA: GGGAGUUCUACAGUCCGACGAUCAAUCUGCAGGCUUCUUAAAGUGACAGUAUCCCUUAACCUGCCACCAGUGUCCACCCUCCGGCCCCCGUCUUGUAAAAAGGGGAGGAGAAUUAGCCAAACACUGUAAGCUUUUAAGAAAAACAACAGAGGAUUGAGCAUCA
B22: chr17:67340809:67340863:-|CDS_3pUTR|ENSG00000197170|msi1_unk|total|mutant (ssRNA)
RNA: GGGAGUUCUACAGUCCGACGAUCACAAAACUACGCAUCUCACCGCCAAAGAGGAGAUGAUACAUAAUCUACAAUAAGGGUCUCCGUGCUUCCGAAAAAAGUUAAAAUUGGAAGUCAUUAAAAAAAGACUGUUAUAAUGGUGUACAACAGAGGAUUGAGCAUCA

target: MSI1 full-length (mouse, UniProt Q61474 1-362); experiment: nsRBNS (natural sequence RNA bind-n-seq); RBNS binding buffer (assumed for nsRBNS): 25 mM Tris pH 7.5, 150 mM KCl, 3 mM MgCl2, 0.01% Triton X-100, 500 ug/ml BSA, 20 U/ml SUPERase-In, 4 C; UNK is unkempt and MSI1 is Musashi-1; names of the RNAs are library labels; protein concentration not given here; high values mean tight binding
Sequence of UniProt Q61474 (Q61474 whole entry): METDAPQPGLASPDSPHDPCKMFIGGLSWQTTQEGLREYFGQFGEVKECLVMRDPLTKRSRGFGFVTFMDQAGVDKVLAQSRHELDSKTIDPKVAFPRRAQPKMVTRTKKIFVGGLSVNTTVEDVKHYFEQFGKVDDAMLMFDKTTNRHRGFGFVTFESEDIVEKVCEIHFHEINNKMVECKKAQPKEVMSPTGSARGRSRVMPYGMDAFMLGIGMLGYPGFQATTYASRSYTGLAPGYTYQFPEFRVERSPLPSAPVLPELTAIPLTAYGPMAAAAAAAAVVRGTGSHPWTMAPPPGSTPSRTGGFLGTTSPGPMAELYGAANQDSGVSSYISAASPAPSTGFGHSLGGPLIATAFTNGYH

Binder | binding signal
B1 | 0.316 enrichment R
B2 | 0.372 enrichment R
B3 | 0.337 enrichment R
B4 | 3.92 enrichment R
B5 | 0.551 enrichment R
B6 | 0.42 enrichment R
B7 | 0.374 enrichment R
B8 | 0.584 enrichment R
B9 | 1.12 enrichment R
B10 | 1.62 enrichment R
B11 | 0.363 enrichment R
B12 | 0.314 enrichment R
B13 | 5.53 enrichment R
B14 | 0.462 enrichment R
B15 | 0.345 enrichment R
B16 | 0.631 enrichment R
B17 | 0.411 enrichment R
B18 | 0.543 enrichment R
B19 | 0.309 enrichment R
B20 | 0.272 enrichment R
B21 | 0.748 enrichment R
B22 | 0.299 enrichment R
